The record followed here is PubChem BioAssay AID488969 (Vanderbilt High Throughput Screening Facility, 2010).

In all, about 110,000 compounds were measured (“z-score”: median about -0.1, highest 2% from about 2 on). This is one part of the list. Calls of active or inactive are those of the source.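 The calls were made as follows: active = z-score in the third read window above 3 or below -3; inactive = the rest.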

In this test the target is Metabotropic glutamate receptor 8 (Rattus norvegicus) (UniProt P70579). The test is described as follows: rat mGluR8 modulators via GIRK flux, primary screen, cell-based, thallium flux, HTS (AID 488969). Particulars: HEK293 rat mGluR8, GIRK (G protein-gated inwardly rectifying potassium channel) thallium flux, FluoZin2; at 10 µM; stronger effect = higher value; submaximal glutamate (EC20) added with thallium.
UniProt P70579, sequence (P70579 whole entry, looked up): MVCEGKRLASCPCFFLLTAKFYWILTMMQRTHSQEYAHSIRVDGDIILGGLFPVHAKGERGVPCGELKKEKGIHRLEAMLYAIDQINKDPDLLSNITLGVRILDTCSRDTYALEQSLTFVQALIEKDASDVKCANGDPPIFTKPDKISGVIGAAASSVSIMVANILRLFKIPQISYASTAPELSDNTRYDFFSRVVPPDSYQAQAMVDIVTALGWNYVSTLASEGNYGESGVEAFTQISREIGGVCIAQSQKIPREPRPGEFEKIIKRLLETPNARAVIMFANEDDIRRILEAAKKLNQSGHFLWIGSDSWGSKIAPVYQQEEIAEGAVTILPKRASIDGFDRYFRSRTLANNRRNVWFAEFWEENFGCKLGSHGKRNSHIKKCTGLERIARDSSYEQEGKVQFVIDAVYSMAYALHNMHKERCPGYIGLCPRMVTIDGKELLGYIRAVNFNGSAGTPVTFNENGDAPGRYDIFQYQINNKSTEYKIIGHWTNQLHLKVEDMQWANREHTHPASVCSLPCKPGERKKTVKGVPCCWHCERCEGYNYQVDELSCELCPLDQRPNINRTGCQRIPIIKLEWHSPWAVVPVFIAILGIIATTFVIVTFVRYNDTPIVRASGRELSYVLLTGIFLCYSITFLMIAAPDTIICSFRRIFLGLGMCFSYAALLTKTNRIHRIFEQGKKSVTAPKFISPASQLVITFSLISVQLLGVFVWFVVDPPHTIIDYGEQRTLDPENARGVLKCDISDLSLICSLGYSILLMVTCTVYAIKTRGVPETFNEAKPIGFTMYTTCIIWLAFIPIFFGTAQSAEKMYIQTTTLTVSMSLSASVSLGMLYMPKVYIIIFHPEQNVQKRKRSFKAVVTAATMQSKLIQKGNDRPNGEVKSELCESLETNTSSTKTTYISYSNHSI
In turn, `O=C(CSc1nnc(CNC(=O)c2cccs2)o1)Nc1cccc(C(F)(F)F)c1` registered a z-score of -0.458.

For the compound `CCC(Oc1ccc2ccccc2c1)C(=O)O` (configuration not stated), the z-score was -0.0519.

`CSC1=N/C(=C\C=C\c2cccs2)C(=O)S1` returned a z-score of -0.171.

Consider `O=[N+]([O-])c1nn(-c2ccc3c(c2)OCCO3)n(O)c1=NCc1ccc(F)cc1`, for which the z-score was -0.3.

As to `O=C1CSC(c2ccc(Cl)cc2)N1` (configuration not stated), the z-score came to 0.239.

Turning to `O=C(c1ccco1)N1CCN(C(=O)C2CC(c3ccc(Cl)cc3)=NO2)CC1` (configuration not stated), the z-score was -0.332.

In the case of `COc1ccc(/C=C/C(=O)NCc2cn(C)nc2C)cc1COc1ccc(Cl)cc1Br`, the z-score is -0.0945.

In turn, `CCCCC(CC)CNC(=O)c1ccc2c(c1)OCO2` (configuration not stated) showed a z-score of -0.00547.

In the case of `Cc1ccc(/C=C/C2=Cc3c(sc(NC(=O)CSc4n[nH]c(N)n4)c3C#N)C(C)(C)C2)o1`, the z-score was -0.156.

Consider `CCCN1CCN(C(=O)c2ccc(Sc3ccc(C)cc3)c(NC(C)=O)c2)CC1`, for which the z-score came to 0.0178.

In the case of `Cc1ccc(S(=O)(=O)N2CCN(CC(=O)N/N=C\C(Cl)=C\c3ccccc3)CC2)cc1`, the z-score was 0.00578.

`COc1c(Cl)ccc(Cl)c1C(=O)NC(=O)N1CCOCC1` had a z-score of -0.808.

For `CN1CCN(C(=O)c2ccc(CN3CCOCC3)cc2)CC1`, the z-score came out at 0.0375.

The compound `O=C(CCn1nc(-c2ccccc2)ccc1=O)N1CCOCC1` yielded a z-score of 0.676.

`COc1ccc(COC(=O)N/N=C(\C)CC(=O)Nc2c(C)cc(C)cc2C)cc1` returned a z-score of -0.78.

`OC1CCN(c2c3c(nc4cc(-c5ccc(F)cc5)nn24)CCC3)CC1` showed a z-score of -0.132.

Take `CCc1ccc(S(=O)(=O)NCCc2csc(-c3ccccc3)n2)s1`: the z-score was -0.301.

Compound `O=C(OC(C(=O)NC1CCCCC1)c1ccccn1)c1cccs1` (configuration not stated) gave a z-score of 0.139.

In the case of `CCOc1ccc(CCNC(=O)CCc2nc(-c3ccc(C)cc3)no2)cc1OCC`, the z-score worked out at 0.33.

`CCN1CCN(Cc2ccc(NC(=O)CC3Oc4ccc(C)cc4NC3=O)cc2)CC1` (configuration not stated) registered a z-score of 0.769.

Consider `COc1ccc(/C=C/C(=O)O)cc1COc1ccccc1C`, for which the z-score amounted to 0.295.

Regarding `COc1ccc(NC(=O)CN2C(=O)c3cccc4cccc2c34)cc1OC`, the z-score is 0.287.

Compound `CCC1(C)N=C(c2ccc3c(c2)OCO3)CC(c2ccccc2O)N1` (configuration not stated) returned a z-score of 0.0814.

Compound `CCOC(=O)/C(C#N)=C/c1ccc(OCC(=O)Nc2ccc(OC)cc2)c(OC)c1` had a z-score of 0.00326.

Consider `COc1ccc2c(CC(=O)N(C)CC3COc4ccccc4O3)coc2c1` (configuration not stated), for which the z-score is -0.3.

On to `COc1cccc(C2N(c3ccc(Cl)cc3)C(=O)C3CCCN32)c1` (configuration not stated), for which the z-score was found to be 0.714.

As for `Nc1cccc2c1C(=O)N(C(=O)c1ccc(S(=O)(=O)N3CCCCCC3)cc1)C2=O`, the z-score was -0.167.

Compound `CCCn1c(SCC(=O)N2CCCCC2)nnc1-c1ccco1` gave a z-score of -0.171.

`COc1cc2c(cc1NC(=O)CN1CCN(S(=O)(=O)c3ccc(C)cc3)CC1)oc1ccccc12` registered a z-score of -0.503.

`O=C(NC12CC3CC(CC(C3)C1)C2)C1CCCN1C(=O)NC1CCCCC1` (configuration not stated) registered a z-score of 0.22.

For the compound `COC(=O)Sc1nc(N2CCOCC2)c2c(c1C#N)CC(C)(C)OC2`, the z-score was -2.52.

For `Cc1cc(C)cc(N2C(=O)CC(Sc3nnnn3-c3ccccc3)C2=O)c1` (configuration not stated), the z-score was -0.0438.

On to `C=CCN=C1SCC(=O)N1S(=O)(=O)c1ccccc1`, for which the z-score was -0.016.

`COc1ccc(OCc2nnc(SCC(=O)O)n2N)cc1` registered a z-score of 0.134.

`N#CC1=C(N)Oc2n[nH]c(-c3ccncc3)c2C1c1ccsc1` (configuration not stated): the z-score was -0.452.

As for `CC(C)(C#CCN1CCCC1)OCCC#N`, the z-score was -0.108.

As to `COCCn1c(SCC(=O)Nc2ccc(Cl)c(S(=O)(=O)N(C)C)c2)nc2ccccc21`, the z-score is -1.27.

Take `COc1ccc(CN2CCSCC2)cc1C`: the z-score is -0.691.

As for `COc1cc(NC(=O)CN2CCN(c3ccccc3)CC2)c(C)cc1[N+](=O)[O-]`, the z-score was -0.248.

Compound `Cc1ccc(C2=[N+]([O-])C3(CCCCC/C3=N\NC(N)=S)N(O)C2(C)C)o1` (configuration not stated) registered a z-score of -0.236.

The compound `CC1CCCCN1CCNC(=O)c1cnn2ccccc12` (configuration not stated) showed a z-score of -0.129.

In turn, `CC(C)CCn1nc(C(=O)Nc2nc3c(s2)CCCC3)c2ccccc2c1=O` gave a z-score of 0.157.

In the case of `Cc1ccc(N(CC(=O)Nc2cccc(N(C)S(C)(=O)=O)c2)S(C)(=O)=O)cc1`, the z-score worked out at 0.0836.

`C[C@H](NC(=O)OC(C)(C)C)c1nnc(SCC(=O)Nc2ccc(Br)cc2)o1`: the z-score worked out at 0.205.

The compound `O=[N+]([O-])c1cccc(/C=C/c2nc(C=Nc3ccccc3)c(O)o2)c1` showed a z-score of -0.161.

As for `CCc1ccc(C(C(=O)NCc2ccc(OC)cc2)N(CCOC)C(=O)Cc2cccs2)cc1` (configuration not stated), the z-score was -0.37.

`O=C(O)CCC(=O)N1N=C(c2c(-c3ccccc3)c3cc(Cl)ccc3[nH]c2=O)CC1c1cccs1` (configuration not stated) came in with a z-score of -0.38.

Take `CCc1c(C)nc(SCC(=O)N2CCc3ccccc32)[nH]c1=O`: the z-score is active: 4.54.

Compound `CC1(C)CC(=O)c2c(O)cc(OCc3ccc([N+](=O)[O-])cc3)cc2O1` had a z-score of -0.143.

For the compound `C=C(C)CSc1nnc2n(N)c(=O)c3ccccc3n12`, the z-score is -0.341.

`S=C(NCc1ccncc1)Nc1cccc(Cl)c1` had a z-score of -0.135.

For the compound `Cc1ccc(NC(=O)c2cccc(OCc3c(C)noc3C)c2)cc1S(=O)(=O)Nc1ccccc1Cl`, the z-score was -1.89.

Compound `O=C(CC(c1ccccc1)c1ccccc1)NCC1CCCO1` (configuration not stated) came in with a z-score of -0.78.

For `O=C(CN1CCCCC1)Nc1cccc(Oc2ccccc2)c1`, the z-score worked out at 1.13.

The compound `CC1(C)CC(=O)C2=C(C1)N(Cc1ccco1)C(=O)C2(NC(=O)C1CCCCC1)C(F)(F)F` (configuration not stated) displayed a z-score of 0.273.

`COc1ccc(C2=NN(C(=O)CSc3nnc(-c4ccccc4F)o3)C(c3ccco3)C2)cc1` (configuration not stated) yielded a z-score of 0.428.

As to `COc1ccc(N(CC(=O)N2CCCC(C)C2)S(=O)(=O)c2c(C)nn(C)c2C)cc1` (configuration not stated), the z-score was -0.0582.

In turn, `CCOc1ccccc1C1C(C(=O)Nc2ccc(OC)cc2)=C(C)Nc2nc(CCCO)nn21` (configuration not stated) came in with a z-score of 1.3.

`O=C(Nc1nccs1)c1ccc(COc2ccccc2Br)o1` registered a z-score of 0.0903.

The compound `Fc1ccc(COc2ccc(Cl)cc2/C=N/Nc2nc(N3CCCC3)nc(N3CCCC3)n2)cc1` returned a z-score of -0.209.

The compound `Cc1ccc(Nc2ncnc3sc(C)c(C)c23)cc1` gave a z-score of 0.163.

In turn, `O=C(NCc1ccco1)/C(=C\c1cccnc1)NC(=O)c1ccccc1F` yielded a z-score of -0.205.

In turn, `CC1CCCC(NS(=O)(=O)c2ccc3c(c2)OCCO3)C1C` (configuration not stated) showed a z-score of -1.41.

`C=CCc1c(C)nc(C)nc1N/N=C/c1ccc([N+](=O)[O-])cc1` gave a z-score of -0.491.

As for `Cc1ccc(C)c(Cn2c(=O)n(CCCC(=O)NCc3ccco3)c(=O)c3sccc32)c1`, the z-score is -0.162.

`Cc1c(NC(=O)CN2C(=O)c3cccc4cccc2c34)c(=O)n(-c2ccccc2)n1C` returned a z-score of -0.144.

The compound `Cc1cc2ncn(C(=O)N3CCCCCC3)c2cc1C` yielded a z-score of -0.0727.
